# Experimental data reported in PubChem BioAssay AID686978 (National Center for Advancing Translational Sciences (NCATS), 2013).
# Where “and” joins values, the source holds several entries; their conditions need not be identical. Equal entries are not always repeated. In all, about 420,000 compounds went through this assay and about 64,000 (15%) were called active. The shares of active, inactive and inconclusive entries below differ from those in the screen. Calls follow the shape of the dose curve; as a rule, active = well fitted inhibition curve with a large enough effect; inconclusive = small, poorly fitted or top-dose-only effect; inactive = flat fitted curve, though single readings scatter. No potency is given beside an inconclusive call; the fits are too rough.
# Experiment: qHTS for Inhibitors of human tyrosyl-DNA phosphodiesterase 1 (TDP1): qHTS in cells in absence of CPT; also: nearly all actives have a fitted effect of over 55% in size
# Conditions: DT40 Tdp1-/- hTDP1 cells, no CPT, ATP luminescence, 48 h; activity change, negative = growth inhibition: at 46.2 µM (top of the series)
# Outline: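 Growth kinetics read by CellTiter-Glo luminescence after ≥48 hr at 37 °C. Cells: DT40 Tdp1-/- stably carrying human TDP1, 400 per well, compound exposure in the absence of CPT (DMSO vehicle).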
# % is scaled to controls: 0 for no effect and ±100 for the full control effect; potency is read from the fitted curve at half-maximal effect; tags tell the direction and shape of the fitted curve.
Compound,"activity change, negative = growth inhibition",Potency
CCC1(C)OC(=O)NN(c2ccc(C)cc2)C1(C)O (configuration not stated),inactive: -5.12%,–
COC(=O)CCN(C(=O)c1cccc([N+](=O)[O-])c1)c1ccccn1,inactive: -15.4%,–
CN1CCN(Cc2c(O)ccc3c2oc(=O)c2ccccc23)CC1,–,active: 11.6 µM
CNC(=S)NNc1ccccc1[N+](=O)[O-],inactive: -17.9%,–
CCOc1cccc(CNc2ccc(O)cc2)c1OCc1ccc(Cl)cc1Cl,–,active: 20.6 µM
Cc1c(NC(=S)NC(=O)c2ccccc2)c(=O)n(-c2ccccc2)n1C,inactive: -12.5%,–
COc1cc2[nH]c(C(=O)N3CCc4ccccc43)cc2c(OC)c1OC,–,"inconclusive [inhibitor, single point]"
O=C1Nc2ccccc2NC(c2ccc3c(c2)OCO3)=C1N(Cc1ccc(F)cc1)C(=O)c1ccco1,–,"inconclusive [inhibitor, single point]"
CCNCc1nc2cc(Cl)ccc2c(=O)[nH]1,–,"inconclusive [inhibitor, single point]"
O=C(CCOc1ccccc1)Nc1ccc(S(=O)(=O)Nc2ncccn2)cc1,inactive: 2.23%,–
CCOC(=O)[C@]12CCC=C1N(CCC1=CCCCC1)C(=O)[C@H](CC(=O)NCc1cccc3ccccc13)C2,–,"inconclusive [inhibitor, single point]"
COC(=O)Cc1[nH]n(-c2nc3ccccc3s2)c(=O)c1C(C)=Nc1ccc(OC)cc1,–,active: 3.26 µM
Cc1cccc2sc(NC(=O)CN(C)S(=O)(=O)c3ccc(Br)s3)nc12,–,"inconclusive [inhibitor, single point]"
CC(=NNC(=O)c1ccncc1)c1ccc(Cl)cc1Cl,inactive: -12.4%,–
CC(C(=O)Nc1ccc(C#N)cc1)N(C)CC(=O)Nc1cccc(F)c1 (configuration not stated),inactive: 2.53%,–
O=c1cc(CN2CCN(S(=O)(=O)c3ccccc3[N+](=O)[O-])CC2)nc2sccn12,inactive: -28.1%,–
N#CC(C#N)=C1c2cc(S(=O)(=O)NCCO)ccc2-c2ccc(S(=O)(=O)NCCO)cc21,–,"inconclusive [inhibitor, partial curve]"
CCOc1ccccc1CNC(=O)CCCN1C(=O)c2cccnc2Oc2ccc(Cl)cc21,–,"inconclusive [inhibitor, single point]"
CCOC(=O)C1(CCOc2ccccc2)CCN(Cc2ccc(OCC)c(CO)c2)CC1,–,active: 18.4 µM

Compound,"activity change, negative = growth inhibition",Potency
Cc1cc(C(=O)CN2C(=O)C(=O)N(C3CCCC3)C2=O)c(C)n1CCc1ccc(F)cc1,–,"inconclusive [inhibitor, single point]"
O=[N+]([O-])c1cc(/C=N/N2CCOCC2)cs1,inactive: -4.69%,–
O=C(Nc1ccccc1Sc1ccccc1)c1cnn2c1NC(=C1CC1)C=C2C(F)(F)F,–,"inconclusive [inhibitor, single point]"
CC(C)C[C@H](NC(=O)[C@H](Cc1ccccc1)NC(=O)c1cnccn1)B(O)O,–,active: 11.9 nM and active: 7.5 nM
CCOC(=O)NC(=O)C(=CNc1cccc(OC)c1)C(=O)NC(=O)OCC,inactive: -8.39%,–
CCCCNC(=O)CC1N=C2c3ccccc3N=C(SCC(=O)Nc3ccc(OC)cc3)N2C1=O (configuration not stated),–,"inconclusive [inhibitor, full curve]"
O=C(c1ccc2c(=O)n3c(nc2c1)CCCCC3)N1CCc2ccccc21,–,"inconclusive [inhibitor, single point]"
O=C(c1cccn1-c1nnc(N2CCCCC2)s1)N1CCN(c2ccccc2)CC1,–,"inconclusive [inhibitor, single point]"
C[C@H](NC(=O)Cc1cccc2ccccc12)C(=O)N1CCOCC1,inactive: 0.873%,–
O=C(Cc1ccc(F)cc1)OCn1nnc2ccccc2c1=O,inconclusive: -24.8% [inhibitor],–
CC(C)(C)c1ccc(SCCc2ccccn2)cc1,inactive: -9.28%,–
COCCN(C(=O)CSc1ncc(C(F)(F)F)cc1Cl)c1c(N)n(Cc2ccccc2)c(=O)[nH]c1=O,inactive: 4.78%,–
C=CCSc1nc2ccccc2n2cnnc12,–,"inconclusive [inhibitor, single point]"
Cc1cc2cc(C)c(NCCNC(=O)c3ccccc3F)nc2cc1C,–,"inconclusive [inhibitor, single point]"
Cc1ccc(S(=O)(=O)N(C)C)cc1NC(=O)COc1ccccc1C(=O)Nc1ccccc1,–,active: 9.2 µM
OCCC1CN(Cc2cccn2-c2cccnc2)CCN1Cc1ccc(F)cc1 (configuration not stated),–,"inconclusive [inhibitor, single point]"
Clc1cccc(CSc2ccc(-c3cccs3)nn2)c1,–,"inconclusive [inhibitor, single point]"
CC(NC(=O)c1ccco1)c1ccc(-n2ccnc2)cc1 (configuration not stated),–,"inconclusive [inhibitor, single point]"
